From US20210107981A1 (SUTRO BIOPHARMA, published 2021) come the findings set out here.

To fix the notation:
T1: murine PD-1 (R&D Systems Inc., Catalog No. 1021-PD-100) (murine, UniProt Q02242 25-167)
T1 construct: also called mouse PD-1
T1 sequence: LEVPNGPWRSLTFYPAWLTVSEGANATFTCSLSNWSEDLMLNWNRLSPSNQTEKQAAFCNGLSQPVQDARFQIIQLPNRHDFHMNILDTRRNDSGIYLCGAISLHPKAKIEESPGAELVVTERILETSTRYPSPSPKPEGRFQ

B1: 1353-G10 scFv-Fc (scFv)
scFv: MEVQLVQSGAEVKKPGASVKVSCKASGYRFPHYGISWVRQAPGQGLEWMGWISAYNGNTNYAQKLQGRVTMTTDTSTNTAYMELRSLRSDDTAVYYCARDVDYGTGSGYWGQGTLVTVSSGGGGSGGGGSGGGGSSYELTQPPSVSVSPGQTARITCSGDALPKQYAYWYQQKPGQAPVMVIYKDTERPSGIPERFSGSSSGTKVTLTISGVQAEDEADYYCQSADNSITYRVFGGGTKVTVLAAGSDQEPKKLAAGSDQ[human IgG1 Fc with changes left out here]GSGDYKDDDDKGSGHHHHHH
notes: scFv-Fc with IgG1 Fc and FlagHis tag; the entry is the whole chain; also called anti-PD-1 human scFv-Fc, clone 1353-G10
B2: 1353-F09 scFv-Fc (scFv)
scFv: MEVQLVQSGAEVKKPGASVKVSCKASGYRFRQYGISWVRQAPGQGLEWMGWISAYNGNTNYAQKLQGRVTMTTDTSTNTAYMELRSLRSDDTAVYYCARDAEYGSGSGYWGQGTLVTVSSGGGGSGGGGSGGGGSSYELTQPPSVSVSPGQTARITCSGDALPKQYAYWYQQKPGQAPVMVLYKDTERPSGIPERFSGSSSGTKVTLTISGVQAEDEADYYCQSADNSITYRVFGGGTKVTVLAAGSDQEPKKLAAGSDQ[human IgG1 Fc with changes left out here]GSGDYKDDDDKGSGHHHHHH
notes: scFv-Fc with IgG1 Fc and FlagHis tag; the entry is the whole chain
B3: 1353-H08 scFv-Fc (scFv)
scFv: MEVQLVQSGAEVKKPGASVKVSCKASGYRFTRQGISWVRQAPGQGLEWMGWISAYNGNTKYAQKLQGRVTMTTDTSTNTAYMELRSLRSDDTAVYYCARDVDYGSGSGYWGQGTLVTVSSGGGGSGGGGSGGGGSSYELTQPPSVSVSPGQTARITCSGDALPKQYAYWYQQKPGQAPVMVIYKDTERPSGIPERFSGSSSGTKVTLTISGVQAEDEADYYCQSADNSITYRVFGGGTKVTVLAAGSDQEPKKLAAGSDQ[human IgG1 Fc with changes left out here]GSGDYKDDDDKGSGHHHHHH
notes: as for B2
B4: 1353-A09 scFv-Fc (scFv)
scFv: MEVQLVQSGAEVKKPGASVKVSCKASGYRFTWYGISWVRQAPGQGLEWMGWISAYNGNTNYAQKLQGRVTMTTDTSTNTAYMELRSLRSDDTAVYYCARDSEYSSGSGYWGQGTLVTVSSGGGGSGGGGSGGGGSSYELTQPPSVSVSPGQTARITCSGDALTTQYAYWYQQKPGQAPVMVIYKDTERPSGIPERFSGSSSGTKVTLTISGVQAEDEADYYCQSADNSITYRVFGGGTKVTVLAAGSDQEPKKLAAGSDQ[human IgG1 Fc with changes left out here]GSGDYKDDDDKGSGHHHHHH
notes: scFv-Fc (VH1-18/Vlambda3-25) with IgG1 Fc and FlagHis tag; the entry is the whole chain
B5: 1353-E07 scFv-Fc (scFv)
scFv: MEVQLVQSGAEVKKPGASVKVSCKASGYRFETYGISWVRQAPGQGLEWMGWISAYNGNTNYAQKLQGRVTMTTDTSTNTAYMELRSLRSDDTAVYYCARDAEYSLGSGYWGQGTLVTVSSGGGGSGGGGSGGGGSSYELTQPPSVSVSPGQTARITCSGDALPKQYAYWYQQKPGQAPVMVIYKDTERPSGIPERFSGSSSGTKVTLTISGVQAEDEADYYCQSADNSITYRVFGGGTKVTVLAAGSDQEPKKLAAGSDQ[human IgG1 Fc with changes left out here]GSGDYKDDDDKGSGHHHHHH
notes: as for B2
B6: 1353-G08 scFv-Fc (scFv)
scFv: MEVQLVQSGAEVKKPGASVKVSCKASGYRFTRYGISWVRQAPGQGLEWMGWVSAHNGNTNYAQKLQGRVTMTTDTSTNTAYMELRSLRSDDTAVYYCARDADYGSGSGYWGQGTLVTVSSGGGVSGGGGSGGGGSSYELTQPPSVSVSPGQTARITCSGDALPMQYGYWYQQKPGQAPVMVIYKDTERPSGIPERFSGSSSGTKVTLTISGVQAEDEADYYCQSADNSITYRVFGGGTKVTVLAAGSDQEPKKLAAGSDQ[human IgG1 Fc with changes left out here]GSGDYKDDDDKGSGHHHHHH
notes: scFv-Fc with IgG1 Fc and FlagHis tag; the entry is the whole chain; also called anti-PD-1 human scFv-Fc, clone 1353-G08
B7: 1353-C07 scFv-Fc (scFv)
scFv: MEVQLVQSGAEVKKPGASVKVSCKASGYRFSTFGISWVRQAPGQGLEWMGWISAYNGNTNYAQKLQGRVTMTTDTSTNTAYMELRSLRSDDTAVYYCARDVDYSSGSGYWGQGTLVTVSSGGGGSGGGGSGGGGSSYELTQPPSVSVSPGQTARITCSGDALSEQYAYWYQQKPGQAPVMVIYKDTERPSGIPERFSGSSSGTKVTLTISGVQAEDEADYYCQSADNSITYRVFGGGTKVTVLAAGSDQEPKKLAAGSDQ[human IgG1 Fc with changes left out here]GSGDYKDDDDKGSGHHHHHH
notes: as for B2
B8: 1353-H09 scFv-Fc (scFv)
scFv: MEVQLVQSGAEVKKPGASVKVSCKASGYRFPHYGISWVRQAPGQGLEWMGWISAYNGNTNYAQKLQGRVTMTTDTSTNTAYMELRSLRSDDTAVYYCARDAEYGSGSGYWGQGTLVTVSSGGGGSGGGGSGGGGSSYELTQPPSVSVSPGQTARITCSGDALPKQYAYWYQQKPGQAPVMVIYKDTERPSGIPERFSGSSSGTKVTLTISGVQAEDEADYYCQSADNSITYRVFGGGTKVTVLAAGSDQEPKKLAAGSDQ[human IgG1 Fc with changes left out here]GSGDYKDDDDKGSGHHHHHH
notes: as for B2

The first test addresses T2, Human PD-1 (ACROBiosystems, Inc., Catalog No. PD1-H5221) (human, UniProt Q15116 partial chain).
T2 construct: Bought recombinant protein; also called huPD1-His; PD-1-his; not shown: His tag of the bought protein (huPD1-His)
The test can be described thus: SPR (Biacore), antibody captured on anti-FLAG, PD-1 as analyte. The procedure:
Monoclonal anti-FLAG M2 IgG (Sigma-Aldrich #F9291) was immobilized onto a CMS chip (GE Life Sciences) using amine coupling chemistry (from Amine Coupling Kit, GE Life Sciences). The immobilization steps were carried out at a flow rate of 25 μl/min in 1×HBS-EP+ buffer (GE Life Sciences; 10× Stock diluted before use). The sensor surfaces were activated for 7 min with a mixture of NHS (0.05 M) and EDC (0.2 M). The Anti-FLAG M2 IgG was injected over all 4 flow cells at a concentration of 25 μg/ml in 10 mM sodium acetate, pH 4.5, for 7 min. Ethanolamine (1 M, pH 8.5) was injected for 7 min to block any remaining activated groups.
Off-rate and kinetic binding experiments were performed at 25° C. using 1×HBS-EP+ buffer. Test and control antibodies were injected over the Anti-FLAG surface at concentrations of 5-10 μg/mL for 12 seconds at a flow rate of 10 μl/min on flow cells 2, 3 and 4, followed by a buffer wash for 30 seconds at the same flow rate. Kinetic characterization of antibody samples was carried out with a single concentration of antigen (for off-rate ranking) or a 1:2 dilution series of antigen (for kinetic characterization) and 1 injection of 0 nM antigen (i.e., buffer alone). After capturing ligand (anti-PD-1 antibody) on the anti-FLAG surface, the analyte (huPD1-His) was bound at 50, 25, 12.5, 6.25 and 0 nM for 180 seconds, followed by a 600 second dissociation phase at a flow rate of 50 μl/min. Between each ligand capture and analyte binding cycle, regeneration was carried out using 2 injections of 10 mM glycine pH 2.0 for 30 seconds at 30 μL/min, followed by a 30 second buffer wash step.
The data was fit with the Biacore T200 Evaluation software, using a 1:1 Langmuir binding model. KD (affinity, nM) was determined as a ratio of the kinetic rate constants calculated from the fits of the association and dissociation phases.
For orientation: In SPR one partner is held on a chip, and binding of the other changes the refractive index at the surface.
What is called Kd is the concentration at which binding is half-saturated. Higher therefore signals a looser complex. In general, koff refers to the rate constant with which the complex falls apart. A low value points to a long-lived complex. Broadly, the kon is the rate constant with which the complex forms. Take B1: the Kd worked out at 1.9 nM, the koff stood at 0.00098 s⁻¹ and the kon is 516000 M⁻¹ s⁻¹.
Molecule B2 showed a Kd of 10.9 nM and a kon of 687000 M⁻¹ s⁻¹.
The molecule B3 came in with a Kd of 4.76 nM, a koff of 0.00118 s⁻¹ and a kon of 248000 M⁻¹ s⁻¹.
B4 had a Kd of 25.5 nM, a koff of 0.0124 s⁻¹ and a kon of 488000 M⁻¹ s⁻¹.
B5 registered a Kd of 9.52 nM, a koff of 0.00701 s⁻¹ and a kon of 737000 M⁻¹ s⁻¹.
Regarding B6, the Kd came out at 4.5 nM, the koff worked out at 0.00254 s⁻¹ and the kon is 563000 M⁻¹ s⁻¹.
For the molecule B7, the Kd is 15.2 nM, the koff amounted to 0.0187 s⁻¹ and the kon was found to be 1.23e+06 M⁻¹ s⁻¹.

A further test concerns the target T3, cynomolgus PD-1 (ACROBiosystems, Inc., Catalog No. PD1-H5254) (cynomolgus, UniProt B0LAJ3 25-167).
T3 construct: also called cyno PD-1
T3 sequence (B0LAJ3 entry or part of it limits assumed, form in doubt): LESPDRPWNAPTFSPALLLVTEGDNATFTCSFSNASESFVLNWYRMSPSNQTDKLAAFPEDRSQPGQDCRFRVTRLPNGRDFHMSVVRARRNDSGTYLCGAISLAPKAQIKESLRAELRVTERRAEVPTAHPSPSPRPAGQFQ
Briefly: SPR (Biacore), cynomolgus PD-1 as analyte.
B1 displayed a Kd of 15.5 nM.
Regarding B6, binding was characterised by a dissociation constant (Kd) of 24.3 nM.

A further test has as its target T1, murine PD-1 (R&D Systems Inc., Catalog …). Briefly: SPR (Biacore), murine PD-1 as analyte.
With B8, the Kd is 9.08 nM.
The molecule B1 returned a Kd of 62.2 nM.
Still for that read-out and setting: in the case of B6 it was 60.9 nM.

The next test has as its target T4, human PD-1 expressed on the cell surface (CHO-PD1 cells) (human, UniProt Q15116 25-288).
T4 construct: Also used here as the target for native PD-1 on human PBMC / T cells in the functional (IFN-g) assays; also called CHO cell line overexpressing human PD-1; Cell-Surface Human PD-1 antigen
The test can be described thus: FACS cell binding on CHO cells expressing human PD-1. The procedure: Antibodies with expression levels >250 nM and mouse IgGs from hybridomas were tested in a fluorescence-activated cell sorting (FACS) cell-binding assay. Chinese Hamster Ovary (or CHO) Cells stably expressing the human target molecule PD-1 on the cell surface (CHO-PD1) were used to screen for binding. Parental CHO cells were used as a negative control to determine background-binding levels. Parental CHO cells and CHO-PD1 cells were cultured in RPMI w/10% FCS penicillin/streptomycin (Pen/Strep) and glutamine (or Gln) and split every 3-4 days at 10⁵ cells/mL.
A mix of parental CHO cells and CHO-PD1 cells was prepared as follows: Parental CHO cells were washed 2× in PBS then incubated in PBS containing 1 μM CellTrace™ Oregon Green488® (Life Technologies) at 37° C. for 30 minutes. Cells were then washed 2× with RPMI w/10% fetal calf serum (FCS), washed 2× with FACS buffer (PBS w/2% FCS), suspended thoroughly in ice-cold FACS buffer at a final concentration of 2×10⁶ cells/mL and kept on ice. CHO-PD1 cells were similarly washed with FACS buffer and kept on ice at 2×10⁶ cells/mL. Parental CHO cells and CHO-PD1 cells were then mixed to obtain a 1:1 cell suspension and seeded at 100 μL per well on 96 well polypropylene plates. Plates were spun at 1500 rpm for 5 minutes and cell pellets were suspended in 50 μL FACS buffer containing 6-12 point dilutions of anti-PD-1 variants starting from concentrations of −100-200 nM antibody, dispensed using BioMek FX (Beckman Coulter). Cells were then incubated on ice for 1 hr, washed with FACS buffer and incubated for 1 hr on ice with 50 μL FACS buffer containing 2.5 μg/ml R-phycoerythrin-conjugated goat anti-Human IgG (Jackson ImmunoResearch) or AF647-conjugated goat anti-mouse IgG (Life Technologies) dispensed using BioMek FX (Beckman Coulter). Cells were then washed 2× with FACS buffer and fixed for 10 minutes in 200 μL PBS with 2% paraformaldehyde (PFA) prior to fluorescence detection. Samples were acquired using a Becton Dickinson LSRII FACS. Mean Fluorescence Intensity of PD-1 antibody binding was analyzed using FlowJo® software (Tree Star, Inc.).
As to B1, the Kd worked out at 0.7 nM. That is a sub-nanomolar value.
B2 returned a dissociation constant Kd of 1 nM.
Same read-out and setting: in the case of B3 it was 0.2 nM.
In turn, B4 gave a Kd of 0.2 nM.
Still for that read-out and setting: next, B5: 0.9 nM; B6: 0.3 nM.
As to B7, the Kd came to 0.4 nM.
